Square brackets hold non-standard residues; d marks the D form. Ends that are not written are not given here.

Drawing on article PMC7948418, “Genetic and biased agonist-mediated reductions in β-arrestin recruitment prolong cAMP signaling at glucagon family receptors” (The Journal of Biological Chemistry, 2020), this text covers cAMP (HTRF), 30 min, PathHunter CHO-GIPR cells: fold reduction of potency against GIP for 1 molecule.

The assay concerns the target T1, human GIPR of PathHunter β-arrestin-2 CHO-K1 cells (human) (UniProt P48546).
T1 sequence: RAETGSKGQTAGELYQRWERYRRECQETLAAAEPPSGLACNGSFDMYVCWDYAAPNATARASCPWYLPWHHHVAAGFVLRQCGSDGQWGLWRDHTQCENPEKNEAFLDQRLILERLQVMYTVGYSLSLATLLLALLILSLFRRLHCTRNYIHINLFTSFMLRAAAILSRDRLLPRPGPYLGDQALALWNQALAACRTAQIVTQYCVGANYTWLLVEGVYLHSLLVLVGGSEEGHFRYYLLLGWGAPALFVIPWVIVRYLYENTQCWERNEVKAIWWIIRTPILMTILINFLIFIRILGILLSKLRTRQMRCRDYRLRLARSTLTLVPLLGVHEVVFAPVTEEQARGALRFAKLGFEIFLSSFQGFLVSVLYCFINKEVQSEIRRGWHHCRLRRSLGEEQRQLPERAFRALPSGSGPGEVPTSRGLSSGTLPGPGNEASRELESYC

For the molecule YA[dQ]GTFISDYSIAMDKIHQQDFVNWLLAQKGKKNDWKHNITQ [GIP-dGln3], the cAMP (HTRF), 30 min, PathHunter CHO-GIPR cells: fold reduction of potency against GIP is 100 fold.
